Measured values as given in the supplement of paper PMC7125110.
Variants at the floor of the assay are shown more often than the library holds them.

B1: glmS ribozyme (parent)
chain: AUAAAAGCGCCAGAACUACAGAAAUGUAGUUGACGAGGAGGAGGUUUAUCGAAUUUUCGGCGGAUGCCUCCAAA

What was measured:
Conditions in all cases: with glucosamine-6-phosphate
[1] = variants of: B1; test: kcat; higher = faster cleavage; RNA array
How it was run: (§1)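 Weighted Michaelis–Menten fits across concentrations supplied kcat and KM, based on kobs from one- or two-exponential decay fits to normalised per-tile medians. The data came from barcoded ribozyme variants transcribed in situ by E. coli RNA polymerase on sequenced MiSeq chips and tracked at 37 °C by a hybridised Cy3 probe. Glucosamine-6-phosphate (40 μM to 10 mM) in HEPES/KCl/Mg(OAc)2 buffer was flowed in.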

[2] = variants of: B1; test: self-cleavage kobs at 160 uM GlcN6P; higher = faster cleavage; RNA array
How it was run: as §1

[3] = variants of: B1; test: self-cleavage kobs at 640 uM GlcN6P; higher = faster cleavage; RNA array
How it was run: as §1

[4] = variants of: B1; test: self-cleavage kobs at 40 uM GlcN6P; higher = faster cleavage; RNA array
How it was run: as §1

[5] = variants of: B1; test: self-cleavage kobs at 10000 uM GlcN6P; higher = faster cleavage; RNA array
How it was run: as §1

[6] = variants of: B1; test: self-cleavage kobs at 2500 uM GlcN6P; higher = faster cleavage; RNA array
How it was run: as §1

| Variant | kcat [1] | self-cleavage kobs at 160 uM GlcN6P [2] | self-cleavage kobs at 640 uM GlcN6P [3] | self-cleavage kobs at 40 uM GlcN6P [4] | self-cleavage kobs at 10000 uM GlcN6P [5] | self-cleavage kobs at 2500 uM GlcN6P [6] |
| --- | --- | --- | --- | --- | --- | --- |
| AUAAACGCGCCAGGACUACAGAAAUGUAGUUGACGAGGAGGAGGUUUAUCGAAUUUUUGGCGGAUGCCUCAAAA [A6C A14G C58U C71A] | < 1e-05 s⁻¹ | < 1e-05 s⁻¹ |  |  |  |  |
| AUAAAUGCGCCAAAACUACAGAAAUGUAGUUGACGAGGAGGAGGUUUAUCGAAUUUUCGGCGGAUGCCUCCAAA [A6U G13A] | < 1e-05 s⁻¹ |  | < 1e-05 s⁻¹ |  |  |  |
| AUAAAAACGCCAGAAAUACAGAAAUGUAGUUGACGAGGAGGAGGUUUAUCGAAUUUUCGGCGGAUGCCUCCAAA [G7A C16A] | < 1e-05 s⁻¹ | < 1e-05 s⁻¹ |  | < 1e-05 s⁻¹ | < 1e-05 s⁻¹ |  |
| AUAAAAUCGCCAGAACUACAGAAAUGUAGUUGACGAGGAGGAGGUUUGUGGAAUUUUCGGCGGAUGCCUCCAAA [G7U A48G C50G] | < 1e-05 s⁻¹ | < 1e-05 s⁻¹ |  |  |  |  |
| AUAAAAGUGCCAGAACUACAGAAAUGUAGUUGUCGAGGAGGAGGUUUAUCGAAUUUUCGGCGGAUGCCUCCAAA [C8U A33U] | < 1e-05 s⁻¹ |  | < 1e-05 s⁻¹ | < 1e-05 s⁻¹ |  |  |
| AUAAAAGUGCCAGAACUACAGAAAUGUAGUUGACAAGGAGGAGGUUUAUCGAAUUUUCGGCGGAUGCCUCCAAA [C8U G35A] | < 1e-05 s⁻¹ | < 1e-05 s⁻¹ | < 1e-05 s⁻¹ | < 1e-05 s⁻¹ |  |  |
| AUAAAAGUGCCAGAACUACAGAAAUGUAGUUGACGACGAGGGGGUUUAUCGAAUUUAAGGCGGAUGCUUCAAAA [C8U G37C A42G U57A C58A C68U C71A] | < 1e-05 s⁻¹ |  |  |  |  | < 1e-05 s⁻¹ |
| AUAAAAGCACCAGAACUACAGAAAUGUAGUUGACGAGGAGGAGGUUUAUCGAAUUUUCGGCGGAUGGCUCCAAA [G9A C67G] | < 1e-05 s⁻¹ |  |  | < 1e-05 s⁻¹ | < 1e-05 s⁻¹ |  |
| AUAAAAGCGUCGGAACUACAGAAAUGUAGUUGACGAGGAGGAGGUUUAUCGUAUUUUCGGCGGAUGCCUCCAAA [C10U A12G A52U] | < 1e-05 s⁻¹ |  | < 1e-05 s⁻¹ | < 1e-05 s⁻¹ | < 1e-05 s⁻¹ | < 1e-05 s⁻¹ |
| AUAAAAGCGCGAGAACUACAGAAAUGUAGUUGACGCGGAGGAGGUUUAUCGAAUUUUCGGCGGAUGCCUCCAAA [C11G A36C] | < 1e-05 s⁻¹ |  |  | < 1e-05 s⁻¹ | < 1e-05 s⁻¹ |  |
| AUAAAAGCGCGAGAACUACAGAAAUGUAGUUGACGAGGAGGAGGUUUAUCGAAUUUUCGGAGGAUGCCUCCAAA [C11G C61A] | < 1e-05 s⁻¹ |  |  | < 1e-05 s⁻¹ |  |  |
| AUAAAAGCGCGAGAACUACAGAAAUGUAGUUGACGAGGAGGAGGUUUAUCGAAUUUUCGGCGAAUGCCUCCAAA [C11G G63A] | < 1e-05 s⁻¹ | < 1e-05 s⁻¹ | < 1e-05 s⁻¹ |  |  |  |
| AUAAAAGCGCUAGAACUACAGAAAUGUAGUUGACGAGGAGGAGGUUUAUCGAAUUUUCGGCGGAUGCAUCCAAA [C11U C68A] | < 1e-05 s⁻¹ |  |  | < 1e-05 s⁻¹ | < 1e-05 s⁻¹ |  |
| AUAAAAGCGCCAAAACUACAGAAAUGUAGUUGACGAGGAGGCGGUUUAUCGAAUUUUCGGCGGAUGCCUCCAAA [G13A A42C] | < 1e-05 s⁻¹ | < 1e-05 s⁻¹ | < 1e-05 s⁻¹ | < 1e-05 s⁻¹ | < 1e-05 s⁻¹ |  |
| AUAAAAGCGCCAGCACUACAGAAAUGUAGUUGACGUGGAGGAGGUUUAUCGAAUUUUCGGCGGAUGCCUCCAAA [A14C A36U] | < 1e-05 s⁻¹ |  |  |  | < 1e-05 s⁻¹ | < 1e-05 s⁻¹ |
| AUAAAAGCGCCAGACCUACAGAAAUGUAGUUGACGAGCAGGAGGUUUAUCGAAUUUUCGGCGGAUGCCUCCAAA [A15C G38C] | < 1e-05 s⁻¹ |  |  |  | < 1e-05 s⁻¹ | < 1e-05 s⁻¹ |
| AUAAAAGCGCCAGACCUACAGAAAUGUAGUUGACGAGUAGGAGGUUUAUCGAAUUUUCGGCGGAUGCCUCCAAA [A15C G38U] | < 1e-05 s⁻¹ |  |  |  | < 1e-05 s⁻¹ |  |
| AUAAAAGCGCCAGAAGUACAGAAAUGUAGUUGACGAGGAGGAGGUUUAUCGAAUUUUCGGCGGUUGCCUUCAAA [C16G A64U C70U] | < 1e-05 s⁻¹ |  | < 1e-05 s⁻¹ | < 1e-05 s⁻¹ |  |  |
| AUAAAAGCGCCAGAAGUACAGAAAUGUAGUUGACGACGAGGAGGUUUAUCGAAUUUUCGGCGGAUGCCUCCAAA [C16G G37C] | < 1e-05 s⁻¹ |  |  | < 1e-05 s⁻¹ |  |  |
| AUAAAAGCGCCAGAAGUACAGAAAUGUAGUUGACGAGGAGGAGGUUUAUCGAAUUUUCGCCGGAUGCCUCCAAA [C16G G60C] | < 1e-05 s⁻¹ |  |  |  |  |  |
| AUAAAAGCGCCAGAAUUACAGAAAUGUAGUUGACGAGGAGGAGGAUUAUCGAAUUUUCUGCGGAUGCUUCCAAA [C16U U45A G59U C68U] | < 1e-05 s⁻¹ |  |  | < 1e-05 s⁻¹ |  |  |
| AUAAAAGCGCCAGAACUACAGAAAUGUAUUUGACGAGGAGGAGGUUUAUCUAAUUUUCGGCGGAUGCCUCCAAA [G29U G51U] | < 1e-05 s⁻¹ | < 1e-05 s⁻¹ | < 1e-05 s⁻¹ | < 1e-05 s⁻¹ |  | < 1e-05 s⁻¹ |
| AUAAAAGCGCCAGAACUACAGAAAUGUAGCUGACGAGGAGGAGGUUUAUCUAAUUUUCGGCGGAUGCCUCCAAA [U30C G51U] | < 1e-05 s⁻¹ |  |  | < 1e-05 s⁻¹ | < 1e-05 s⁻¹ |  |
| AUAAAAGCGCCAGAACUACAGAAAUGUAGUCGACGCGGAGGAGGUUUAUCGAAUUUUCGGCGGAUGCCUCCAAA [U31C A36C] | < 1e-05 s⁻¹ |  |  |  |  |  |
| AUAAAAGCGCCAGAACUACAGAAAUGUAGUUCACGCGGAGGAGGUUUAUCGAAUUUUCGGCGGAUGCCUCCAAA [G32C A36C] | < 1e-05 s⁻¹ | < 1e-05 s⁻¹ |  |  |  |  |
| AUAAAAGCGCCAGAACUACAGAAAUGUAGUUUACGAGGAGGAGGUUUAUCGAAUUUUCGGCGGAUGCAUCCAAA [G32U C68A] | < 1e-05 s⁻¹ |  |  |  |  |  |
| AUAAAAGCGCCAGAACUACAGAAAUGUAGUUGGCGAGGAGGAGGUUUAUCCAAUUUUCGGCGGAUGCCUCCAAA [A33G G51C] | < 1e-05 s⁻¹ |  |  |  | < 1e-05 s⁻¹ |  |
| AUAAAAGCGCCAGAACUACAGAAAUGUAGUUGGCGAGGAGGAGGUUUAUCGAAUUUUCCGCGGAUGCCGCCAAA [A33G G59C U69G] | < 1e-05 s⁻¹ |  |  |  | < 1e-05 s⁻¹ |  |
